Values marked as one replicate rest on one cluster of the flow cell; about a third of the high ones do not repeat.
test system: ATP; assay: switch fluorescence ratio, 500 uM ATP over buffer (Cy3 cluster intensity, sum of 5 cycles each) (fold (ratio)); higher = stronger signal-on switching upon ATP binding; sequences stand for … in TCGTCGGCAGCGTCAGATGTGTATAAGAGACAGTTTTTTTTTTTTTTTTTTTTTTTTT…TC; settings: aptamer strand: ATP DNA aptamer (quencher-CACCTGGGGGAGTATTGCGGAGGAAGG + anchor), 100 nM annealed; ATP concentration: 500 uM; one replicate
Procedure, shortened: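 After annealing to 100 nM quencher-labelled ATP aptamer, Cy3-labelled switching-strand clusters on a modified Illumina MiSeq flow-cell were imaged in selection buffer. A second image followed after 15 min with 500 uM ATP at 22 °C, and five such buffer/ATP cycles were done, each separated by NaOH stripping and re-annealing. The fluorescence ratio, averaged per switch-domain sequence, is summed target-cycle over summed buffer-cycle Cy3 intensity per cluster, with clusters outside 100-1000 RFU excluded.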
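Note: ATP exposure 15 min at 22 °C before imaging.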

Sequence | switch fluorescence ratio
CCTTGTCGCT | 1.1
CCTTGTGAAT | 1.04
CCTTGTTAAC | 1.12
CCTTTCACTG | 1.18
CCTTTCAGGC | 1.07
CCTTTCTGTT | 1.06
CCTTTGAATT | 1.13
CCTTTGCCAC | 3.98
CCTTTGGGAT | 1
CCTTTTGACA | 1
CGAAAAGCTG | 1
CGAAACGCCT | 1.08
CGAAAGGACA | 1.01
CGAAATCGGC | 1.13
CGAAATTAAT | 1.04
CGAACAATAA | 1.67
CGAACCCTGG | 1.48
CGAACCTGCA | 1.96
CGAACTCCAT | 0.997
CGAAGAAGAC | 1.27
CGAAGCCATT | 1.12
CGAAGGGAGT | 1.02
CGAAGGTGTC | 1.18
CGAAGTTCAT | 0.987
CGAAGTTCC | 1.05
CGAAGTTCCA | 0.986

Sequence | switch fluorescence ratio
CGAAGTTTC | 1.01
CGAATCACGC | 1.06
CGAATCGCGT | 0.984
CGAATGCGAT | 1.23
CGAATGGCGG | 0.94
CGAATGGGTC | 0.947
CGAATTCAAA | 0.983
CGACAACTTC | 1.32
CGACAAGGGG | 1.05
CGACATAGAC | 3.03
CGACATAGTA | 1
CGACCCAGAT | 1.09
CGACCCGTGC | 1.72
CGACCGACCG | 1.08
CGACCTAATA | 1.36
CGACCTCTGC | 1.75
CGACGAGTGA | 1.07
CGACGCGGAG | 1.27
CGACGTTTG | 1.03
CGACTAATAA | 1.44
CGACTCAGCA | 2.18
CGACTCCCAG | 1.02
CGACTCGATA | 1.54
CGACTCTTGG | 0.968
CGACTGATTC | 1.08
CGACTGCCAC | 1.58

Sequence | switch fluorescence ratio
CGACTTCGAT | 1.04
CGAGAACGCT | 1.02
CGAGAAGTCG | 0.977
CGAGACTGTT | 1.03
CGAGAGGTTA | 1.03
CGAGAGTCCG | 0.995
CGAGATGGAA | 0.995
CGAGATTGGA | 1.04
CGAGCGCCGG | 0.94
CGAGCGTCTG | 0.951
CGAGCTCAGG | 1.97
CGAGGACTTT | 0.953
CGAGGAGGTC | 1.03
CGAGGATCAG | 1.01
CGAGGCCCGT | 0.99
CGAGGCGCTT | 1.01
CGAGGCGGAT | 1.02
CGAGGGAGTC | 1.03
CGAGGGTTCT | 0.968
CGAGGTATAA | 1.17
CGAGGTCTTC | 1
CGAGTCCTTT | 0.974
CGAGTTACGC | 0.948
CGAGTTCAGA | 1.02
CGAGTTCTCG | 0.982

From the supplement of paper PMC10126150
